Reference: PubChem BioAssay AID1346428 (National Center for Advancing Translational Sciences (NCATS), 2018)
“And” between values parts separate entries of the source, which are not always exact repeats. Identical values can stand only once. Among all 48,000 compounds or so, about 1,200 (2.5%) were called active. Not shown: some 2% with an inconclusive outcome.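 Rule for the calls: active = activation of at least 60% and not above a set upper limit (about 1 call in 100 departs from these limits); inconclusive = activation of 40% to 60%, or above that upper limit; inactive = activation under 40%.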 This is one part of the list.

Each molecule was assayed against Probable G-protein coupled receptor 32 (Homo sapiens) (UniProt O75388) (assay: qHTS for Agonists of Human Resolvin D1 Receptor DRV1). Settings: CHO-K1 GPR32 beta-arrestin PathHunter luminescence, 90 min; at 76.9 µM; stronger effect = higher value; zero percent set by DMSO-only wells.
In short: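 Cells are plated overnight, treated with compounds in DMSO for 90 minutes at 37 °C, and developed with PathHunter detection reagent for 1 hour before luminescence is read; signal reflects beta-arrestin binding to GPR32 in engineered CHO-K1 cells.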
Note: 0% is about no effect.

Sequence of UniProt O75388 (O75388 whole entry, looked up): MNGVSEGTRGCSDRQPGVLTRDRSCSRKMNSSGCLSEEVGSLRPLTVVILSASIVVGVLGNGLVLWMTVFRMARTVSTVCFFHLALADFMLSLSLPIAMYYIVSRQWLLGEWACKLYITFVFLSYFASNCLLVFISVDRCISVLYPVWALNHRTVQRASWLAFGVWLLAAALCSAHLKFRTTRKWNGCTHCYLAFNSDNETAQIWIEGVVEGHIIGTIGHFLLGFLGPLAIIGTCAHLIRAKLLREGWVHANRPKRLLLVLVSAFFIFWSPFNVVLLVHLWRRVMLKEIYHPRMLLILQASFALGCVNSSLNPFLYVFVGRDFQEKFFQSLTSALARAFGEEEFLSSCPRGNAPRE

activation, inactive:
O=C(NC1CCCCCC1)c1ccc2c(c1)sc1nc(-c3ccc(F)cc3)cn12 0.18%
CCOc1ccc(NC(=O)CN2C(=O)C(c3ccccc3)=NC23CCC(C)CC3)cc1 (stereo unspecified) -21.7%
CCOC(=O)c1ccc(CN(Cc2ccc(F)cc2)S(=O)(=O)c2cc(C(=O)Nc3cccc(C(F)(F)F)c3)ccc2F)cc1 -13.1%
COc1cc2c(=O)c(S(=O)(=O)c3ccc(F)cc3)cn(Cc3ccc(Cl)cc3)c2cc1OC -5.73%
Cn1c(=O)n(-c2ccc(Br)cc2F)c(=O)c2sc3ccccc3c21 2.46%
COc1ccc(Cn2c(=O)[nH]c3cc(C(=O)N4CCN(c5cccc(Cl)c5)CC4)ccc3c2=O)cc1 14.4%
CC(=O)c1ccc(NC(=O)c2noc3c2CCc2ccccc2-3)cc1 8.2%
CC1(C)O[C@@H]2C[C@H]3[C@@H]4CCC5=CC(=O)CC[C@]5(C)[C@@]4(F)[C@@H](O)C[C@]3(C)[C@]2(C(=O)CCl)O1 -27.4%
O=C(Nc1ccc(C(=O)OCc2cc(=O)n3c4c(sc3n2)CCCC4)cc1)c1ccccc1 -7.86%
COc1ccc(C2C(C(N)=O)=C(C)Nc3nc(CCCO)nn32)c(OC)c1 (stereo unspecified) -19.4%
CCOc1ccc(NC(=O)Cn2cc(C(=O)c3ccc(CC)cc3)c(=O)c3cc(C)ccc32)cc1 -5.09%
COc1cccc(-c2nc(SCc3cc(=O)c4ccc(C)c(C)c4[nH]3)n[nH]2)c1 25.1%
CCOc1cccc(C(=O)Nc2ccc(S(=O)(=O)N(Cc3ccccc3)c3ccccc3)cc2)c1 1.91%
Cc1ccc(Cc2c(C)nc3nc(SCC(=O)NC(C)c4ccccc4)nn3c2C)cc1 (stereo unspecified) -14.9%
CCCN(C(=O)c1nn(-c2ccc(OC)cc2)c(=O)c2c1c1ccccc1n2C)c1ccc(CC)cc1 -8.83%
Cc1ccc(Cc2nc3ccccc3nc2SCC(=O)NCCC(C)C)cc1 -16.7%
COc1ccc(NC(=O)c2csc3c2CCCCC3)cc1 -22.9%
C[C@]12C=CC(=O)C=C1CC[C@H]1[C@@H]3C[C@@H](O)[C@](O)(C(=O)CO)[C@@]3(C)C[C@H](O)[C@@]12F -4.43% and -8.17%
CCOCCCn1c(SCC(=O)Nc2ccc(C(C)C)cc2)nc2c(sc3ccccc32)c1=O 0.321%
O=C(CSc1nc2c([nH]c3ccccc32)c(=O)n1-c1ccc(F)cc1)NCc1ccccc1 32.7%
COc1ccc(S(=O)(=O)c2nnn(-c3cc(Cl)c(OC)cc3OC)c2C)cc1 -19.1%
COc1ccc(C(=O)NCC(c2cccnc2)N2CCc3ccccc3C2)cc1OC (stereo unspecified) -13.4%
COC(=O)c1cc2occc2n1Cc1nc(-c2ccccc2F)oc1C -5.4%
Cn1c(=O)c2c(-c3ccccc3)n3c4ccccc4nc(-c4ccccc4)c3c2n(C)c1=O 0.609%
CCn1c(=O)c2cc(C(=O)Nc3cc(F)ccc3F)sc2c2ccccc21 -1.01%
O=C(Nc1cccc(-c2nc3cc(Cl)ccc3o2)c1)c1cc([N+](=O)[O-])ccc1N1CCOCC1 5.07%
Cc1ccc(CN2CCC(CNc3ncnc4onc(-c5ccc(F)cc5)c34)CC2)cc1 31.5%
COc1ccc(CN2C(=O)c3oc4ccccc4c(=O)c3C2c2ccc(O)cc2)cc1 (stereo unspecified) -2.66%
Cc1ccc(NC(=O)C2CCN(c3nc4ccccc4nc3C(F)(F)F)CC2)cc1F 5.49%
COc1ccc(C(=O)Nc2nnc(S(=O)(=O)N3CCCCCC3)s2)cc1OC 8.04%
CCC(C)n1c(=N)c(C(=O)NCc2ccccc2)cc2c(=O)n3cc(C)ccc3nc21 (stereo unspecified) 2.24%
CCOC(=O)c1cc(-c2ccccc2)n(-c2cccc(C(=O)Nc3cccc(F)c3)c2)c1C -31.7%
CCN(CC)C(=O)/C(C#N)=C/c1cc(O)c(O)c([N+](=O)[O-])c1 -90.1%
COc1ccc(C(=O)c2oc3ccccc3c2NC(=O)COc2ccccc2)cc1 -12.6%
Cc1ccc(CNC(=O)CCc2c(C)nc3c(c(C)nn3-c3ccccc3)c2C)cc1 6.2%
CCc1cccc(C)c1NC(=O)CC1Oc2ccc(C)cc2NC1=O (stereo unspecified) -7%
COc1ccc(CCNC(=O)c2sc3nc4n(c(=O)c3c2C)CCCC4)cc1OC 2.74%
CC(C)n1c(=N)c(C(=O)NCc2cccnc2)cc2c(=O)n3ccccc3nc21 -6.67%
O=C(COc1ccc(Cl)cc1)OCc1cc(=O)n2nc(-c3cccs3)sc2n1 -7.95%
COc1ccc(Cl)cc1NS(=O)(=O)c1cc(Br)cc2c1N(C(=O)C1CC1)CC2 -1.59%
CCCS(=O)(=O)c1c(S(=O)(=O)CCC)c2cc(CC)ccn2c1C(=O)c1ccc(OC)cc1 23.4%
COc1ccc(CCNC(=O)c2cnc3ccc(C)cn3c2=O)cc1 5.2%
CCOc1ccc(NC(=O)N2CCC(C(N)=O)(N3CCCCC3)CC2)cc1 -12.5%
COc1cccc(Cn2nnc(C(=O)Nc3cc(C)ccc3C)c2N)c1 7.94%
CC(C)CS(=O)(=O)c1oc(-c2ccc(F)cc2)nc1S(=O)(=O)c1ccccc1 -0.334%
O=C(NC1CC(=O)N(c2cccc(F)c2)C1)c1ccc(S(=O)(=O)N2CCCC2)cc1 (stereo unspecified) -6.09%
O=C(Cn1c(=O)n(Cc2ccccc2)c(=O)c2sc3ccccc3c21)NCc1ccccc1Cl 0.665%
O=C(CCc1nc(-c2cccs2)no1)Nc1ccccc1[N+](=O)[O-] -0.632%
Cc1ccn2c(=O)c(C(=O)NCCc3ccccc3)c(O)nc2c1 -20.8%
CCOc1ccccc1CNC(=O)Cn1c(-c2ccccc2)cc(C(C)=O)c1C -6.28%
Cc1ccc2nc(NC(=O)CSc3nccn3Cc3ccc(Cl)cc3)sc2c1 -13.9%
